Among the test systems are SK-MEL-28 melanoma; SF-539 CNS; UACC-62 melanoma.
What all share (test): DTP human tumour cell line panel, 48 h

SMILES strings stand for the structures.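 Each compound was tested at five concentrations against cells in 96-well plates for 48 hours. GI50 marks 50% less growth.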 A number of entries come with more than one value. This is not the full list of results. An entry can have further records. The records of an entry are repeated measurements (runs, samples, wells, individuals or studies). What stands in brackets tells the records apart. The letters are not those of the source and start again with each entry.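 The concentration for full growth arrest is given as TGI.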

On to `CS(=O)(=O)N1CCN(Cc2cc3nc(-c4cccc5[nH]ncc45)nc(N4CCOCC4)c3s2)CC1`, for which the TGI in the assay on SK-MEL-28 melanoma is > 100 µM [sample A, 1 test] and 2.08 µM [sample B, mean of 2 tests]; with SF-539 CNS, > 28.1 µM [sample A, mean of 2 tests] and 2.21 µM [sample B, mean of 2 tests]. The GI50 in the assay with UACC-62 melanoma is 365 nM [sample A, mean of 2 tests] and 36.2 nM [sample B, 1 test].

The values above are taken from PubChem BioAssay (NCI).
